# According to PubChem BioAssay (Tox21):
# This list was built around the results that the source calls inconclusive (neither active nor inactive); the mix of calls is not that of the screen. For part of these data: No potency is given beside an inconclusive call; the fits are too rough. Active and inactive are the calls of the source. Unless noted, calls follow the shape of the dose curve; as a rule, active = well fitted curve in the direction sought with a large enough effect in the repeat runs; inconclusive = weak or mixed curves; inactive = no such curve, though single readings can be large; an effect the other way counts as inactive or inconclusive.
# Tests used:
# [1] = qHTS assay to identify small molecule antagonists of the progesterone receptor (PR) signaling pathway - cell viability counter screen (AID 1346798); also: series mostly up to about 92 µM; nearly all actives have a fitted effect of over 50% in size
# How it was run: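 ATP content as viability readout: CellTiter-Glo luminescence, 30 min room temperature, in PR-UAS-bla HEK293T cells after 16 hr compound/R5020 treatment at 37C and 5% CO2.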
# [2] = qHTS assay to identify small molecule antagonists of the TGF-beta/Smad signaling pathway - cell viability counter screen (AID 1346824); also: nearly all actives have a fitted effect of over 50% in size
# How it was run: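 SBE-bla HEK 293T cells were plated overnight at 37 C, then given compounds in DMSO plus TGF-beta1 (added as 0.25 ng/mL solution) for 5 hr. After the bla read, CellTiter-Glo was added to the same wells and luminescence read after 30 min at room temperature.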
# [3] = biological target: Thyrotropin-releasing hormone receptor (Homo sapiens) (UniProt P34981); test: qHTS assay to identify small molecule agonists of the thyrotropin-releasing hormone receptor (TRHR) signaling pathway (AID 1346891; calls by dose curve; also: potency is read from the fitted curve at half-maximal effect)
# Chain of UniProt P34981 (P34981 whole entry, looked up): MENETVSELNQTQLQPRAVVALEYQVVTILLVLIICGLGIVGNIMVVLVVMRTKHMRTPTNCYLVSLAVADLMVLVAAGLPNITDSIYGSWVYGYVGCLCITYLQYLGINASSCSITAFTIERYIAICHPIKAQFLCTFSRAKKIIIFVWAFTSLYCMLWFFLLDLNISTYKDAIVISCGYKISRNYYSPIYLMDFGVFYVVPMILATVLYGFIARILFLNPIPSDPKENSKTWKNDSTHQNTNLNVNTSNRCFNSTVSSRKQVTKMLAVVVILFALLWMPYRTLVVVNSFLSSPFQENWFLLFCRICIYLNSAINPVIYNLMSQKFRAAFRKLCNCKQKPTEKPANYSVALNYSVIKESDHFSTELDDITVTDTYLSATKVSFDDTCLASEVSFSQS
# How it was run: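 In 1536-format, 1500 TRHR-Hek293 cells per well grew 18 h, took up calcium dye for 2 h at 37 °C, received compound, and were read kinetically; 15-point titrations, triplicates.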
# [4] = Caspase-3/7 induction in HepG2 cells by small molecules, qHTS assay (AID 1346978); also: potency is read from the fitted curve at half-maximal effect; nearly all actives have a fitted effect of over 15% in size
# How it was run: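 Wild-type HepG2 cells (2,000/well) were settled 5 h at 37 C, 5% CO2, then exposed to compounds in DMSO for 17 h. Caspase-3/7 activity was read by luminescence 30 min after adding Caspase-Glo 3/7 reagent at room temperature.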
# Tags tell the direction and shape of the fitted curve.
smiles,measurement,setting,value
C=C(C)c1cccc(C(=C)C)c1,Potency,[1],inactive
COc1ccc(C)cc1[N+](=O)[O-],Potency,[1],inactive
CC12CC3CC(C)(C1)CC(N)(C3)C2,Potency,[2],inactive
C(=C\c1ccccc1)/CN1CCN(C(c2ccccc2)c2ccccc2)CC1,Potency,[3],inactive
CN(C)CCCN1c2ccccc2CCc2ccccc21,Potency,[3],inconclusive [activator]
Cc1c(-c2ccc(O)cc2)n(Cc2ccc(OCCN3CCCCCC3)cc2)c2ccc(O)cc12,Potency,[4],"inconclusive [activator, partial curve, poor fit]"
